{"source": "the supplement of paper PMC8047034", "note": "Counter-ions that a name gives are not always drawn. The list shows a part of the results. Repeats are few or missing, and single values can be far off."}
{"system": "Ov4Carbo", "assay": "log2 surviving fraction (library drug vs vehicle, or drug + carboplatin vs carboplatin alone; relative to plate median); ovarian cancer lines: OVCAR4 is platinum-sensitive and Ov4Carbo platinum-resistant; higher = more cell survival", "settings": "library drug concentration 10 µM; 7 days; carboplatin co-treatment 5 µM"}
{"compound": "O=C(O)CCCN1CCC(O[C@@H](c2ccc(Cl)cc2)c2ccccn2)CC1", "note": "[Bepotastine Besilate]", "log2 surviving fraction": 0.51}
{"compound": "COC(=O)N/N=C/c1c[n+]([O-])c2ccccc2[n+]1[O-]", "note": "[Carbadox]", "log2 surviving fraction": -0.167}
{"compound": "CCOC(=O)CC(=O)N1CCSC1COc1ccccc1OC", "note": "(stereo not given) [Moguisteine]", "log2 surviving fraction": 0.745}
{"compound": "CCC1(c2ccc(N)cc2)CCC(=O)NC1=O", "note": "(stereo not given) [Aminoglutethimide (Cytadren)]", "log2 surviving fraction": 0.234}
{"compound": "CC(=O)O[C@H]1C[C@@H]2CC[C@@H]3[C@H](CC[C@@]4(C)[C@H]3C[C@H]([N+]3(C)CCCCC3)[C@@H]4OC(C)=O)[C@@]2(C)C[C@@H]1[N+]1(C)CCCCC1", "note": "[Pancuronium (Pavulon)]", "log2 surviving fraction": 0.0165}
{"compound": "CC(NC(C)(C)C)C(=O)c1cccc(Cl)c1", "note": "(stereo not given) [Amfebutamone (Bupropion)]", "log2 surviving fraction": 1.32}
{"compound": "CCCc1nc2c(C)cc(-c3nc4ccccc4n3C)cc2n1Cc1ccc(-c2ccccc2C(=O)O)cc1", "note": "[Telmisartan (Micardis)]", "log2 surviving fraction": 0.0503}
{"compound": "Clc1ccc2nsnc2c1NC1=NCCN1", "note": "[Tizanidine HCl]", "log2 surviving fraction": 0.269}
{"compound": "CN1C2CCC1CC(OC(=O)C(O)c1ccccc1)C2", "note": "(stereo not given) [Homatropine Bromide]", "log2 surviving fraction": 1.07}
{"compound": "CCc1cc2c(cc1CC)CC(NC[C@H](O)c1ccc(O)c3[nH]c(=O)ccc13)C2", "note": "[Indacaterol Maleate]", "log2 surviving fraction": 0.223}
{"compound": "OCCOCCN1CCN(C(c2ccccc2)c2ccc(Cl)cc2)CC1", "note": "(stereo not given) [Hydroxyzine 2HCl]", "log2 surviving fraction": 0.278}
{"compound": "COc1cccc(N(C)C(=S)Oc2ccc3c(c2)CCCC3)n1", "note": "[Liranaftate]", "log2 surviving fraction": -0.56}
{"compound": "C=CCN1CC[C@]23c4c5ccc(O)c4O[C@H]2C(=O)CC[C@@]3(O)[C@H]1C5", "note": "[Naloxone HCl]", "log2 surviving fraction": 1.53}
{"compound": "C[C@@H]1O[C@@H](O[C@H]2C[C@@H](O)[C@]3(CO)[C@H]4[C@H](O)C[C@]5(C)[C@@H](C6=CC(=O)OC6)CC[C@]5(O)[C@@H]4CC[C@]3(O)C2)[C@H](O)[C@H](O)[C@H]1O", "note": "[Ouabain]", "log2 surviving fraction": -6.3}
{"compound": "NC(=O)N1c2ccccc2C=Cc2ccccc21", "note": "[Carbamazepine (Carbatrol)]", "log2 surviving fraction": 0.466}
{"compound": "CCCN(CCC)CCc1cccc2c1CC(=O)N2", "note": "[Ropinirole HCl]", "log2 surviving fraction": -0.299}
{"compound": "C[C@]12C=CC(=O)C=C1CC[C@H]1[C@@H]3C[C@@H](O)[C@](O)(C(=O)CO)[C@@]3(C)C[C@H](O)[C@@]12F", "note": "[Triamcinolone (Aristocort)]", "log2 surviving fraction": -10.6}
{"compound": "CCN(Cc1ccncc1)C(=O)C(CO)c1ccccc1", "note": "(stereo not given) [Tropicamide]", "log2 surviving fraction": -0.176}
{"compound": "CC(C)C(=O)Oc1ccc(CO)cc1[C@H](CCN(C(C)C)C(C)C)c1ccccc1", "note": "[Fesoterodine fumarate (Toviaz)]", "log2 surviving fraction": -0.232}
{"compound": "CC(=O)O[C@]1(C(C)=O)CC[C@H]2[C@@H]3C[C@H](C)C4=CC(=O)C=C[C@]4(C)[C@@]3(F)[C@@H](O)C[C@@]21C", "note": "[Fluorometholone Acetate]", "log2 surviving fraction": 0.914}
{"compound": "COC(=O)C1=CCCN(C)C1", "note": "[Arecoline]", "log2 surviving fraction": 0.146}
{"compound": "c1ccc2[nH]c(-c3cscn3)nc2c1", "note": "[Thiabendazole]", "log2 surviving fraction": 0.56}
{"compound": "CCN(CC)CCOC(=O)c1ccc(N)cc1", "note": "[Procaine (Novocaine) HCl]", "log2 surviving fraction": 0.493}
{"compound": "COC(=O)C1=C(C)NC(C)=C(C(=O)OCCN(C)Cc2ccccc2)C1c1cccc([N+](=O)[O-])c1", "note": "(stereo not given) [Nicardipine HCl]", "log2 surviving fraction": -2.86}
{"compound": "O=C1NC(=O)C(c2ccccc2)(c2ccccc2)N1", "note": "[Phenytoin (Lepitoin)]", "log2 surviving fraction": -0.00211}
{"compound": "CN1CCN(c2c(F)cc3c(=O)c(C(=O)O)cn(CCF)c3c2F)CC1", "note": "[Fleroxacin (Quinodis)]", "log2 surviving fraction": 0.563}
{"compound": "CN(C)CCCOc1nn(Cc2ccccc2)c2ccccc12", "note": "[Benzydamine Hydrochloride]", "log2 surviving fraction": -0.405}
{"compound": "Cc1cc(C2CCCCC2)n(O)c(=O)c1", "note": "[Ciclopirox (Penlac)]", "log2 surviving fraction": -6.9}
{"compound": "CN1CC(=O)NC1=N", "note": "[Creatinine]", "log2 surviving fraction": 1.86}
{"compound": "Nc1ccc(C(=O)O)c(O)c1", "note": "[Aminosalicylate sodium]", "log2 surviving fraction": -0.803}
{"compound": "COc1c(N2C[C@@H]3CCCN[C@@H]3C2)c(F)cc2c(=O)c(C(=O)O)cn(C3CC3)c12", "note": "[Moxifloxacin hydrochloride]", "log2 surviving fraction": 0.366}
{"compound": "CC(=O)Oc1ccccc1C(=O)O", "note": "[Aspirin (Acetylsalicylic acid)]", "log2 surviving fraction": 0.329}
{"compound": "OCC(O)CN1CCN(c2ccccc2)CC1", "note": "(stereo not given) [Dropropizine]", "log2 surviving fraction": 0.314}
{"compound": "O=S(=O)(O)CCS", "note": "[Mesna (Uromitexan, Mesnex)]", "log2 surviving fraction": 0.462}
{"compound": "C[C@]12CC[C@H]3[C@@H](CC[C@@]45O[C@@H]4C(O)=C(C#N)C[C@]35C)[C@@H]1CC[C@@H]2O", "note": "[Trilostane]", "log2 surviving fraction": -0.12}
{"compound": "CCOc1nc2cccc(C(=O)O)c2n1Cc1ccc(-c2ccccc2-c2noc(=O)[nH]2)cc1", "note": "[Azilsartan (TAK-536)]", "log2 surviving fraction": -0.217}
{"compound": "CC(=O)OC1CN2CCC1CC2", "note": "(stereo not given) [Aceclidine HCl]", "log2 surviving fraction": 1.16}
{"compound": "CC1(C)[C@@H](OC(=O)CCC(=O)O)CC[C@]2(C)[C@H]3C(=O)C=C4[C@@H]5C[C@@](C)(C(=O)O)CC[C@]5(C)CC[C@@]4(C)[C@]3(C)CC[C@@H]12", "note": "[Carbenoxolone Sodium]", "log2 surviving fraction": 0.628}
{"compound": "C=CC[N+]1([C@H]2C[C@H]3[C@@H]4CC[C@H]5C[C@H](O)[C@@H](N6CCOCC6)C[C@]5(C)[C@H]4CC[C@]3(C)[C@H]2OC(C)=O)CCCC1", "note": "[Rocuronium bromide]", "log2 surviving fraction": 0.0569}
{"compound": "Cc1cc(C(C#N)c2ccc(Cl)cc2)c(Cl)cc1NC(=O)c1cc(I)cc(I)c1O", "note": "(stereo not given) [Closantel]", "log2 surviving fraction": 0.304}
